This is one part of the list.
Columns and labels:
HSkMC = human skeletal muscle cells; test: cytotoxicity call (relative viability < 0.9); conditions: 10 µM
S. aureus RN4220 = test: growth inhibition call (relative growth <= 0.2); conditions: 50 µM

Structure (SMILES) | cytotoxicity call (HSkMC) | growth inhibition call (S. aureus RN4220)
C[C@@H]1CN([C@@H](C)CO)C(=O)c2cc(/C=C/c3ccccc3)cnc2O[C@H]1CN(C)C(=O)CN1CCOCC1 | inactive | inactive
C[C@@H]1CN([C@H](C)CO)C(=O)c2cc(NC(=O)CCC(F)(F)F)ccc2O[C@@H](C)CCCCO[C@@H]1CN(C)S(=O)(=O)c1ccc(Cl)cc1 | inactive | inactive
COc1ccc(S(=O)(=O)N(C)C[C@H]2Oc3c(NC(=O)C4CCOCC4)cccc3C(=O)N([C@@H](C)CO)C[C@@H]2C)cc1 | inactive | inactive
CCS(=O)(=O)N1CC[C@]2(CC1)CN(Cc1ccc3c(c1)OCO3)[C@@H](CO)c1[nH]c3cc(ccc3c12)OC | inactive | inactive
N=C(NO)NCC[C@H](N)C(=O)O | inactive | inactive
OCc1cc(O)c2c(O)c3c(O)cccc3c(O[C@@H]3O[C@H](CO)[C@H](O)[C@@H](O)[C@H]3O)c2c1 | inactive | inactive
O=C(CCCCCNC(=O)OCCCCO[C@@H]1C[C@H](C2CCCCC2)C=C(C(=O)N2CCOCC2)O1)NO | inactive | inactive
NCc1ccc2c(c1)CCO2 | inactive | inactive
Clc1ccc(/C=C/C2=Nc3cccc4cccc(c34)N2)cc1 | inactive | inactive
C[C@H](CO)N1C[C@H](C)[C@@H](CN(C)S(=O)(=O)c2cccs2)Oc2ccc(NC(=O)Cn3cnnn3)cc2CC1=O | inactive | inactive
CC(=O)N(C)CCc1ccc(C)[n+]([O-])c1 | inactive | inactive
Cc1ccc(S[C@]2(C(=O)NCCCN(C)C)CC(=O)N(Cc3ccccc3Cl)[C@@H]2c2ccc(CO)cc2I)cc1 | inactive | inactive

Source: the antibiotic and cytotoxicity screens of Wong et al. (2023)
